Laboratory results reported in a collection of fitness landscapes (doi:10.1016/j.celrep.2020.107928).
Over roughly 81,000 sequences, “one-hybrid fitness for binding parS DNA” has its median near -0.17; the highest 2% begin near 0.51. Some of the results follow.

B1: Caulobacter ParB omega fusion; a variant is named by its letters at X, in order, B8GW30 (parent)
chain: MESVVVGEPGMSEGRRGLGRGLSALLGEVDAAPAQAPGEQLGGSREAPIEILQRNPDQPRRTFREEDLEDLSNSIREKGVLQPILVRPSPDTAGEYQIVAGERAWRAAQRAGLKTVPIMVRELDDLAVLEIGIIENVQRADLNVLEEALSYKVLMEKFERTQENIAQTIGKSXSHVANXMRLLXLPDEVQSYLVSGELTAXHARAIAAAADPVALAKQIIEGGLSVRETEALARKAPNLSAGKSKGGRPPRVKDTDTQALESDLSSVLGLDVSIDHRGSTGTLTITYATLEQLDDLCNRLTRGI

Variants of: B1
Assay: one-hybrid fitness for binding parS DNA (scaled: cognate 1, non-cognate 0); higher = stronger binding
Details: with parS DNA site
How it was run: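 Selection: bacterial one-hybrid in E. coli USO, HIS3 reporter with the site 19 bp from the promoter, 48 hours at 37°C on M9-minus-histidine plus 0.1 mM IPTG and 5 mM 3-AT. Libraries were Caulobacter ParB with four randomised specificity codons, sequenced on Illumina before and after selection. Fitness is the rescaled log change in variant-to-wild-type read ratio, anchored to the cognate and non-cognate sites.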

Variant	one-hybrid fitness for binding parS DNA
WTTR	≤ 0.2
MQRG	≤ 0.2
FWEL	0.329
QTFK	≤ 0.2
AWDL	≤ 0.2
AVID	0.231
INER	≤ 0.2
QRVE	≤ 0.2
IQIG	≤ 0.2
LNLR	≤ 0.2
SMCS	≤ 0.2
CRGT	≤ 0.2
SMAY	≤ 0.2
ECGT	≤ 0.2
PNTV	≤ 0.2
DEPY	≤ 0.2
NVWS	≤ 0.2
EARC	≤ 0.2
EMCF	≤ 0.2
PFRH	≤ 0.2
RGPR	≤ 0.2

Variant	one-hybrid fitness for binding parS DNA
SAYN	≤ 0.2
FPYD	≤ 0.2
FVNA	≤ 0.2
IWNL	≤ 0.2
ACFK	≤ 0.2
TCSL	≤ 0.2
GEAS	≤ 0.2
TSAV	≤ 0.2
NLVG	≤ 0.2
SFWG	≤ 0.2
DCKR	≤ 0.2
SRFL	≤ 0.2
YYYN	≤ 0.2
WPHF	≤ 0.2
RANP	≤ 0.2
TPYT	≤ 0.2
ERTV	≤ 0.2
PLGV	≤ 0.2
VDLG	≤ 0.2
RLMS	1.04
ICRM	≤ 0.2

Variant	one-hybrid fitness for binding parS DNA
QIQG	≤ 0.2
LIPM	≤ 0.2
EPGT	≤ 0.2
MIQT	≤ 0.2
TAFG	≤ 0.2
TKWW	≤ 0.2
EDTD	≤ 0.2
QDVL	≤ 0.2
HATH	≤ 0.2
RIQA	0.576
KCRF	≤ 0.2
AGGW	≤ 0.2
GLPD	≤ 0.2
AFPV	≤ 0.2
MRYI	≤ 0.2
VQHS	≤ 0.2
PPPG	≤ 0.2
PYWR	≤ 0.2
VMTI	≤ 0.2
KNQP	≤ 0.2
RPIV	≤ 0.2

Variant	one-hybrid fitness for binding parS DNA
HQLA	≤ 0.2
ELAR	≤ 0.2
DVVD	≤ 0.2
QCPG	≤ 0.2
LVHC	≤ 0.2
REVS	≤ 0.2
GCKT	≤ 0.2
MWRY	≤ 0.2
QCGC	≤ 0.2
YRVG	≤ 0.2
KMVS	≤ 0.2
GSCH	≤ 0.2
SKYH	≤ 0.2
LEKP	≤ 0.2
CTVC	≤ 0.2
NTTV	≤ 0.2
TLTK	≤ 0.2
ANHS	≤ 0.2
PAYC	≤ 0.2
SAHV	≤ 0.2
CGKW	≤ 0.2
